According to the supplement of paper PMC3334620:
The full ranking holds about 33,000 sequences; the median of “E-score (-0.5 to 0.5)” is about -0.017, and the highest 2% start at about 0.3. The list shows a part of the results.

Target: T1, Sut1 (UniProt P53032)
T1 sequence: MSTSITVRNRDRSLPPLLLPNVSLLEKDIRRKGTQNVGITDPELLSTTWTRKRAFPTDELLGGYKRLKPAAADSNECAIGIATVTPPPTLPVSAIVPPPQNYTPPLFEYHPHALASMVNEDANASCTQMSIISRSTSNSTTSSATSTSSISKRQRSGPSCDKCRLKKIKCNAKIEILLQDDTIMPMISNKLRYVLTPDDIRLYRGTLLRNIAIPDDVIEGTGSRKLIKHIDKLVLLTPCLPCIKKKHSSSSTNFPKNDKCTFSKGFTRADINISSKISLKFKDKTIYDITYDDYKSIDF
Test: PBM E-score (8-mer binding enrichment) (E-score (-0.5 to 0.5)); higher = stronger / more preferred TF binding; most listed sequences are background and not binding sites
Conditions: protein concentration: 200 nM; construct: GST-full length
Procedure: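 Universal 'all 10-mer' protein binding microarrays (Agilent AMADID 015681) probed with GST-tagged S. cerevisiae TFs (full-length or DBD) made by in vitro transcription/translation (PURExpress), about 100-200 nM. Bound TF was detected with fluorescent anti-GST. Each ungapped 8-mer (which stands for itself and its reverse complement) is scored by the PBM enrichment score (E-score), a modified Wilcoxon-Mann-Whitney statistic from -0.5 to +0.5, computed with the Universal PBM Analysis Suite. Scale: above 0.35 generally sequence-specific binding.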

Sequence | PBM E-score
CCTGCCTA | -0.0979
AGTTGTTG | 0.135
CAGAGCGG | 0.0194
CCCGTGTA | 0.0488
CCACGGAC | 0.202
CGAGCCAA | -0.0278
GTCGCCTA | -0.116
AGCGAGCA | -0.0935
AATACGCA | 0.0344
ACGCGGGC | -0.143
AGGTATTC | 0.133
CTCGCTCC | -0.119
AAATCAAC | 0.0897
ACACCAGG | -0.229
CGATAATC | 0.0974
ACGTCACC | -0.0655
CAAGTCCC | -0.162
GTGGGACA | -0.26
ATGTCCAC | 0.0574
ATCCTATA | 0.195
CACTGAAA | 0.116
GACCGTAC | -0.259
CATAGCCA | -0.0744
AGTCGCTA | -0.145
CTAGGCCC | -0.108

Sequence | PBM E-score
ACCTTCAC | -0.166
ATATTATC | 0.223
GCAAGGGA | -0.24
GATTACAC | 0.0955
AGCGGGTG | -0.281
ATAGCACC | -0.101
CGCCATAG | -0.152
CAGAGTCG | -0.00687
CAGCATAG | -0.0608
ATGTAAAG | 0.0933
AGGTCTTA | -0.0325
ACGCAATG | -0.195
CGGCCATA | -0.19
CACGGTGA | -0.0232
CTCGGCGC | 0.107
GAGACCTC | -0.0192
ACACACGC | -0.0881
AACCGTGA | -0.0718
ACCTCGCA | -0.0723
AACAGCAA | 0.151
CGCCAAGC | -0.0568
AAGAGACG | -0.0793
AGTACGCA | -0.0353
CGGCTCTA | 0.0674
CAGACTAA | -0.0981

Sequence | PBM E-score
ATGTACCG | 0.129
AAGGAGTG | -0.0821
ACCAATAT | 0.246
CTTACCCC | -0.02
ACTTGTTG | -0.0742
CTCAGAAA | -0.0405
ATTATGGG | 0.00879
ACTTCTGC | -0.0328
CATGACGC | -0.171
AAGGAGGC | -0.285
ATAGAATA | 0.276
CAAGACCA | -0.215
CCCCCTCG | -0.309
GTCTGCTA | 0.0584
AGAGCAAA | 0.0178
CCAAGAGG | -0.239
CAGGAGAG | -0.199
AGGGTGTC | -0.0588
AGAGATAC | 0.0698
AAGATATA | 0.269
ATCTATCA | 0.0706
CCTGTGTA | 0.0463
CTGCAACA | 0.0195
AATACTAT | 0.2
CCCTCGAC | -0.327

Sequence | PBM E-score
ACCCGTAA | -0.0581
CGCGGGGA | -0.00923
GTACGTAC | -0.203
GCAAAACA | 0.0109
GTCATTCA | 0.0766
ATGACAAG | 0.0389
GACTTGGC | -0.0784
GAGCCTTA | 0.038
CGTCGGCC | -0.174
TTACTGAA | 0.142
GTACACGA | -0.101
CCGTATGA | 0.175
ATAGATAC | 0.107
CGCGCTGA | -0.116
AGCAGTCC | -0.0327
GACATTCA | 0.132
GACAAATC | 0.0726
CTAAGACA | -0.155
AGGCCCTG | -0.302
CCGGTTTC | 0.0671
GAAAAAAA | 0.225
CAAAAGGG | 0.127
TCTGCTCA | -0.183
GAAAAGAC | 0.154
CGCCTTAC | -0.137

Sequence | PBM E-score
GAAATGCA | 0.177
GCGCTGCC | -0.266
CAATCGAG | -0.309
CATTCCCC | 0.0871
ACCATGTC | 0.0433
CGGTTTTA | 0.0984
CCTAAGCA | -0.0741
CTGCTATA | 0.126
GCGTGACA | -0.0732
CGCTGGAA | 0.00423
GGAAGTAA | 0.123
CCGAATTC | 0.212
GACATGAC | -0.194
GGTAATTA | 0.201
CGACGGCA | -0.283
ATCACGGG | -0.0946
AAGCTCTA | -0.0336
GAAGCTGA | 0.0675
CACTACGA | -0.0264
GGATTAGA | 0.0186
AGATAACG | 0.157
AGTTTTTG | 0.28
GATTTACA | 0.187
GCACCGAC | -0.0581
ACGTTGCT | -0.0587

Sequence | PBM E-score
CACTGTAC | -0.112
CATAATGC | 0.00682
GGCAGGAC | -0.36
GAACGACA | -0.0146
GCCTCCCA | -0.219
CGTTACCA | -0.0543
CTTATTTC | 0.207
ATTACTTA | 0.327
CCGTACCA | 0.134
CTAAACAG | -0.0773
CCCCGACG | 0.0421
CGGTGACA | 0.0501
AACATGTG | 0.128
CATAGCAC | 0.051
AACCCGCG | -0.0758
CTAAAGAG | -0.00543
CTAGACGC | -0.0143
GAATCATA | 0.154
AAAAGTGC | 0.0634
CATCACTA | 0.132
GTCATAAC | 0.00303
AGGCCAGA | -0.0679
CCGGTTTA | 0.0276
CCACCGGG | -0.0405
CATTTAAA | 0.226

Sequence | PBM E-score
AGATCATA | 0.155
CCGCAAGA | 0.06
ACAGAAAA | 0.00533
AAACTCCT | 0.016
AATATAGA | 0.166
AGGTGCAC | -0.143
AAGTTTAT | 0.219
GCATAGCA | -0.144
GACCTTGC | -0.163
GGGGTCTA | 0.03
GTATCCCA | -0.144
CACCCATG | -0.131
AAAGGCAA | 0.191
ATTCGCAA | 0.178
CACTACTA | 0.0443
CGAATGAC | 0.117
GTAAAGAA | 0.21
CATTTAAG | 0.168
CGTAGCTC | 0.112
AAGAAGGC | -0.133
ACCGTTAC | -0.0733
CACTCTAA | 0.0202
